Assay [1] concerns the target T1, NUMB-1-FLAG (human) (UniProt P49757).
T1 sequence: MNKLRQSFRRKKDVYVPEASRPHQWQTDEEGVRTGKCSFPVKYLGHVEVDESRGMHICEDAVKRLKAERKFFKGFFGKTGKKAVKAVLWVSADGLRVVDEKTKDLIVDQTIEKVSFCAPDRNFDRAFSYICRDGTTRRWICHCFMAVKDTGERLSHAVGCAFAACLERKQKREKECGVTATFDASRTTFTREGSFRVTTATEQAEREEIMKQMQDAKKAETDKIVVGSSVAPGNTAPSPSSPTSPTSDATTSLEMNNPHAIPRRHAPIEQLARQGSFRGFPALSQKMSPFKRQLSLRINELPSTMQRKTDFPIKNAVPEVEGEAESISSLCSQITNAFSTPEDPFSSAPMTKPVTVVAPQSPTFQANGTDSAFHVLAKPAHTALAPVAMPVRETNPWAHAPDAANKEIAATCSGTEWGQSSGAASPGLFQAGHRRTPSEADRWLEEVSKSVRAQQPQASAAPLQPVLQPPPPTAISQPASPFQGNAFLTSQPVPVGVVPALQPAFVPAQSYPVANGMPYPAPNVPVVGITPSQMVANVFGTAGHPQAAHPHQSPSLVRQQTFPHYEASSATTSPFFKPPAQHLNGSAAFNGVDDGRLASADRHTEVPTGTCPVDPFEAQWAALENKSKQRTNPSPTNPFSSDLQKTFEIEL
Kind of assay: co-IP; lysates of transfected HEK-293 cells in JS buffer (50 mM HEPES pH 7.5, 150 mM NaCl, 1% Triton X-100), anti-FLAG or anti-HA beads, 2 h at 4 C, immunoblot; in some panels SNX9 siRNA or graded amounts of SNX9-HA.

Assay [2] deals with sorting nexin 9 (SNX9), endogenous (human (endogenous in HEK-293, MCF10A, HBL-100)) (UniProt Q9Y5X1). Kind of assay: co-IP; endogenous proteins from HEK-293 lysate in JS buffer, anti-NUMB (AB21) or anti-SNX9 antibody on Protein A/G magnetic beads, 2 h at 4 C, immunoblot; in some panels SNX9 or NUMB siRNA. (In western blotting, separated proteins are transferred to a membrane and probed.)

Assay [3] deals with SNX9-FLAG (UniProt Q9Y5X1). Briefly: co-IP; lysates of extracellular vesicles purified by ultracentrifugation from the conditioned medium of SNX9-FLAG expressing cells, anti-FLAG magnetic agarose beads, immunoblot; FLAG peptide as negative control.

No constants are given. Whether binding was seen depends on the method and setting. In cells and extracts the contact can be indirect. Some results given as binding are weak or reduced against the parent protein; the word gives no strength. For part of these data: Tags and fused reporters may be left off the sequences shown.

B1: SNX33, endogenous (protein, UniProt Q8WV41 1-574)
chain: MALKGRALYDFHSENKEEISIQQDEDLVIFSETSLDGWLQGQNSRGETGLFPASYVEIVRSGISTNHADYSSSPAGSPGAQVSLYNSPSVASPARSGGGSGFLSNQGSFEEDDDDDWDDWDDGCTVVEEPRAGGLGTNGHPPLNLSYPGAYPSQHMAFRPKPPLERQDSLASAKRGSVVGRNLNRFSCFVRSGVEAFILGDVPMMAKIAETYSIEMGPRGPQWKANPHPFACSVEDPTKQTKFKGIKSYISYKLTPTHAASPVYRRYKHFDWLYNRLLHKFTVISVPHLPEKQATGRFEEDFIEKRKRRLILWMDHMTSHPVLSQYEGFQHFLSCLDDKQWKMGKRRAEKDEMVGASFLLTFQIPTEHQDLQDVEDRVDTFKAFSKKMDDSVLQLSTVASELVRKHVGGFRKEFQKLGSAFQAISHSFQMDPPFCSEALNSAISHTGRTYEAIGEMFAEQPKNDLFQMLDTLSLYQGLLSNFPDIIHLQKGAFAKVKESQRMSDEGRMVQDEADGIRRRCRVVGFALQAEMNHFHQRRELDFKHMMQNYLRQQILFYQRVGQQLEKTLRMYDNL
Consider B1, for which, in assay [1], the binding entry is on record as “no binding”.

B2: SNX9-Y177A mutant (protein, UniProt Q9Y5X1 1-595)
chain: MATKARVMYDFAAEPGNNELTVNEGEIITITNPDVGGGWLEGRNIKGERGLVPTDYVEILPSDGKDQFSCGNSVADQAFLDSLSASTAQASSSAASNNHQVGSGNDPWSAWSASKSGNWESSEGWGAQPEGAGAQRNTNTPNNWDTAFGHPQAYQGPATGDDDDWDEDWDGPKSSSAFKDSESADAGGAQRGNSRASSSSMKIPLNKFPGFAKPGTEQYLLAKQLAKPKEKIPIIVGDYGPMWVYPTSTFDCVVADPRKGSKMYGLKSYIEYQLTPTNTNRSVNHRYKHFDWLYERLLVKFGSAIPIPSLPDKQVTGRFEEEFIKMRMERLQAWMTRMCRHPVISESEVFQQFLNFRDEKEWKTGKRKAERDELAGVMIFSTMEPEAPDLDLVEIEQKCEAVGKFTKAMDDGVKELLTVGQEHWKRCTGPLPKEYQKIGKALQSLATVFSSSGYQGETDLNDAITEAGKTYEEIASLVAEQPKKDLHFLMECNHEYKGFLGCFPDIIGTHKGAIEKVKESDKLVATSKITLQDKQNMVKRVSIMSYALQAEMNHFHSNRIYDYNSVIRLYLEQQVQFYETIAEKLRQALSRFPVM
With B2, the binding result in assay [1] is listed as “binds”.

B3: SNX18, endogenous (protein, UniProt Q96RF0 1-628)
chain: MALRARALYDFRSENPGEISLREHEVLSLCSEQDIEGWLEGVNSRGDRGLFPASYVQVIRAPEPGPAGDGGPGAPARYANVPPGGFEPLPVAPPASFKPPPDAFQALLQPQQAPPPSTFQPPGAGFPYGGGALQPSPQQLYGGYQASQGSDDDWDDEWDDSSTVADEPGALGSGAYPDLDGSSSAGVGAAGRYRLSTRSDLSLGSRGGSVPPQHHPSGPKSSATVSRNLNRFSTFVKSGGEAFVLGEASGFVKDGDKLCVVLGPYGPEWQENPYPFQCTIDDPTKQTKFKGMKSYISYKLVPTHTQVPVHRRYKHFDWLYARLAEKFPVISVPHLPEKQATGRFEEDFISKRRKGLIWWMNHMASHPVLAQCDVFQHFLTCPSSTDEKAWKQGKRKAEKDEMVGANFFLTLSTPPAAALDLQEVESKIDGFKCFTKKMDDSALQLNHTANEFARKQVTGFKKEYQKVGQSFRGLSQAFELDQQAFSVGLNQAIAFTGDAYDAIGELFAEQPRQDLDPVMDLLALYQGHLANFPDIIHVQKGKAWPLEQVIWSVLCRLKGATLTAVPLWVSESYSTGEEASRDVDAWVFSLECKLDCSTGSFLLEYLALGNEYSFSKVQRVPLMTVLSF
Regarding B3, the binding entry in assay [1] is on record as “no binding”.

B4: EPS15, endogenous (protein, UniProt P42566 1-896)
chain: MAAAAQLSLTQLSSGNPVYEKYYRQVDTGNTGRVLASDAAAFLKKSGLPDLILGKIWDLADTDGKGILNKQEFFVALRLVACAQNGLEVSLSSLNLAVPPPRFHDTSSPLLISGTSAAELPWAVKPEDKAKYDAIFDSLSPVNGFLSGDKVKPVLLNSKLPVDILGRVWELSDIDHDGMLDRDEFAVAMFLVYCALEKEPVPMSLPPALVPPSKRKTWVVSPAEKAKYDEIFLKTDKDMDGFVSGLEVREIFLKTGLPSTLLAHIWSLCDTKDCGKLSKDQFALAFHLISQKLIKGIDPPHVLTPEMIPPSDRASLQKNIIGSSPVADFSAIKELDTLNNEIVDLQREKNNVEQDLKEKEDTIKQRTSEVQDLQDEVQRENTNLQKLQAQKQQVQELLDELDEQKAQLEEQLKEVRKKCAEEAQLISSLKAELTSQESQISTYEEELAKAREELSRLQQETAELEESVESGKAQLEPLQQHLQDSQQEISSMQMKLMEMKDLENHNSQLNWCSSPHSILVNGATDYCSLSTSSSETANLNEHVEGQSNLESEPIHQESPARSSPELLPSGVTDENEVTTAVTEKVCSELDNNRHSKEEDPFNVDSSSLTGPVADTNLDFFQSDPFVGSDPFKDDPFGKIDPFGGDPFKGSDPFASDCFFRQSTDPFATSSTDPFSAANNSSITSVETLKHNDPFAPGGTVVAASDSATDPFASVFGNESFGGGFADFSTLSKVNNEDPFRSATSSSVSNVVITKNVFEETSVKSEDEPPALPPKIGTPTRPCPLPPGKRSINKLDSPDPFKLNDPFQPFPGNDSPKEKDPEIFCDPFTSATTTTNKEADPSNFANFSAYPSEEDMIEWAKRESEREEEQRLARLNQQEQEDLELAIALSKSEISEA
B4: the binding result in assay [1] is “binds”.

B5: NUMB, endogenous (protein, UniProt P49757-1 1-651)
chain: MNKLRQSFRRKKDVYVPEASRPHQWQTDEEGVRTGKCSFPVKYLGHVEVDESRGMHICEDAVKRLKAERKFFKGFFGKTGKKAVKAVLWVSADGLRVVDEKTKDLIVDQTIEKVSFCAPDRNFDRAFSYICRDGTTRRWICHCFMAVKDTGERLSHAVGCAFAACLERKQKREKECGVTATFDASRTTFTREGSFRVTTATEQAEREEIMKQMQDAKKAETDKIVVGSSVAPGNTAPSPSSPTSPTSDATTSLEMNNPHAIPRRHAPIEQLARQGSFRGFPALSQKMSPFKRQLSLRINELPSTMQRKTDFPIKNAVPEVEGEAESISSLCSQITNAFSTPEDPFSSAPMTKPVTVVAPQSPTFQANGTDSAFHVLAKPAHTALAPVAMPVRETNPWAHAPDAANKEIAATCSGTEWGQSSGAASPGLFQAGHRRTPSEADRWLEEVSKSVRAQQPQASAAPLQPVLQPPPPTAISQPASPFQGNAFLTSQPVPVGVVPALQPAFVPAQSYPVANGMPYPAPNVPVVGITPSQMVANVFGTAGHPQAAHPHQSPSLVRQQTFPHYEASSATTSPFFKPPAQHLNGSAAFNGVDDGRLASADRHTEVPTGTCPVDPFEAQWAALENKSKQRTNPSPTNPFSSDLQKTFEIEL
As to B5, the binding result in assay [2] and in assay [3] was “binds” each time.

These data come from paper PMC13248759.
